Source: PMC4336329 (PLoS ONE, 2015)
The whole screen tested about 310,000 compounds, of which about 2,200 (0.71%) showed an effect of 50% or more. The effect is printed as a negative number. The list shows a part of the results.

Biological target: human ether-à-go-go-related gene (hERG) potassium channel (human, UniProt Q12809)
Test: primary screen, population patch clamp on CHO cells stably expressing hERG

Sequence of human ether-à-go-go-related gene (hERG) potassium channel (Q12809 whole entry, looked up): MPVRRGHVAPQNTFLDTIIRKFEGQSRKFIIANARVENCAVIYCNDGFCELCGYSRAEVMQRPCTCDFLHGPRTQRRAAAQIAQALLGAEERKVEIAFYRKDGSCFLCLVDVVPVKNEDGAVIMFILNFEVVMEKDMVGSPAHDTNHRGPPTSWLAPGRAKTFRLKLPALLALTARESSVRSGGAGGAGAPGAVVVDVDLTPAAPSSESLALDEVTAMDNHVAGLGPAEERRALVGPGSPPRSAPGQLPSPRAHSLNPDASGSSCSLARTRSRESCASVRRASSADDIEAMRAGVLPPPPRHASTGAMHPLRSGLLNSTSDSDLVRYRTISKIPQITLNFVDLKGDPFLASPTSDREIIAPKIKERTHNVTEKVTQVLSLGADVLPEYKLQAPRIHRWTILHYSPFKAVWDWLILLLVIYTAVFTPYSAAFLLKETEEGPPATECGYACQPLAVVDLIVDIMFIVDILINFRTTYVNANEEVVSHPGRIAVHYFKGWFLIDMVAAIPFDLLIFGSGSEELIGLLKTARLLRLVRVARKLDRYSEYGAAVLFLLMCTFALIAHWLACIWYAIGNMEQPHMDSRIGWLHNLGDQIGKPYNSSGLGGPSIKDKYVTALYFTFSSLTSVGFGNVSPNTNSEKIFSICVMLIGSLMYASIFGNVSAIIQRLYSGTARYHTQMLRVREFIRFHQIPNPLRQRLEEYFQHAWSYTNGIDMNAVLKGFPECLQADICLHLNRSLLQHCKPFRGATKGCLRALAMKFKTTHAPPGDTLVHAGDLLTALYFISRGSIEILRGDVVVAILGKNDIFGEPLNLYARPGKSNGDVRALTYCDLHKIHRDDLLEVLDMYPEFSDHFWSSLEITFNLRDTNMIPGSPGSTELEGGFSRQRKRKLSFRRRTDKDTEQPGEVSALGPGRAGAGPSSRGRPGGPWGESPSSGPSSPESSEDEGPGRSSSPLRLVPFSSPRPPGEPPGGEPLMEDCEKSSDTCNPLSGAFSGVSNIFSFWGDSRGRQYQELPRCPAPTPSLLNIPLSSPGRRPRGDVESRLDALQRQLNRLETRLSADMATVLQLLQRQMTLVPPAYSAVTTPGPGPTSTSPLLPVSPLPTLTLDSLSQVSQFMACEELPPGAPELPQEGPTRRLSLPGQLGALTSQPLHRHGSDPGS

SMILES	hERG current change (%, negative = inhibition) at 1uM [%]
Cc1sc2ncnc(SCC(=O)N3CCCC3)c2c1C	3.05
Cc1cccc(NC(=O)Nc2cccc3ccccc23)c1	5.66
CCN(c1ccccc1)S(=O)(=O)c1ccc(Oc2ccc([N+](=O)[O-])cc2)nc1	4.59
COCc1c(C(=O)OC)nnn1-c1ccc(C(F)(F)F)cc1[N+](=O)[O-]	4.27
COc1ccc(NC(=O)CCCC(=O)c2ccccc2)cc1OC	8.46
Cc1ccc(N=CC=C2OC(C)(C)C(C)(C)O2)c(C)c1	13.7
C=CCN1C(=O)/C(=C2/Sc3ccc(OC)cc3N2C)SC1=NCc1ccccc1	2.86
Cc1ccc(-n2c(O)c(/C=N/c3ncc(Br)cc3Br)c(=O)[nH]c2=O)cc1	1.59
O=C(NC1CC1)C1=C[C@@H](c2coc3ccccc3c2=O)C[C@@H](OCc2ccc(CO)cc2)O1	-5.18
CCN1CCc2c(OCC(=O)N3CCCc4ccccc43)cccc2C1=O	4.36
CSCC[C@@H](C(=O)Nc1ccc2c(c1)OCCO2)N1Cc2ccccc2C1=O	0.177
NC(=O)c1cc(-c2ccncc2)nc2ccc(Cl)cc12	13.8
CCOC(=O)C1CCCN(Cc2cccc(Oc3ccccc3)c2)C1 (centres unmarked)	7.83
C/C(N)=C(/C#N)C(=O)CSc1nnc(Nc2ccccc2C)s1	5.44
CC1(/[N+]([O-])=C\c2ccccc2F)CCCCC1=O (centres unmarked)	12.5
COc1ccc(CN2CCN(C3CCC3)CC2CCO)c(F)c1 (centres unmarked)	12.2
c1ccc2c(-c3nc4ncccc4o3)cccc2c1	9.44
C1=CC2CC1CC2CN1CCN(c2ccccc2)CC1 (centres unmarked)	-6.09
N#C/C(=C\c1ccc(-c2ccc(S(=O)(=O)N3CCOCC3)cc2)o1)C(=O)NC1CC1	4.22
Cc1c(OCc2ccccc2)c(=O)ccn1Cc1ccc(Cl)cc1	16.9
CC(C)N1CCc2c(sc(NC(=O)CN3C(=O)c4ccccc4C3=O)c2C(N)=O)C1.Cl	4.44
COc1ccc(CN(C)CC(=O)Nc2cccc(S(=O)(=O)N(C)c3ccccc3)c2)c(OC)c1	-25

SMILES	hERG current change (%, negative = inhibition) at 1uM [%]
CCOC(=O)c1nc(Nc2cccc(C)c2)c2ccccc2n1	1.44
Cc1cccc(S(=O)(=O)NNC(=O)c2cc(-c3ccc(F)cc3)nc3ccccc23)c1	7.19
Cc1ccc(C(=O)NC(C)c2ccccc2)cc1Br (centres unmarked)	9.93
CCOC(=O)N/N=C1\CCc2ccccc21	11.1
O=C(NCCc1ccc(F)cc1)c1ccc(NS(=O)(=O)c2ccc3[nH]c(=O)[nH]c3c2)cc1	17.3
COc1ccc(CN2CCOC2=O)cc1OC	13.4
NS(=O)(=O)c1ccc(CNC(=O)c2cc(-c3cccnc3)nc3ccccc23)cc1	14.6
CC(=O)NNc1cc(C)nc(NS(=O)(=O)c2ccc(C)cc2)n1	14.4
O=C(Cn1cnc2c(oc3ccccc32)c1=O)NCc1ccccc1	4.83
O=C(NC(CO)Cc1ccc([N+](=O)[O-])cc1)C(Cl)Cl (centres unmarked)	11.2
O=S(=O)(O)c1cccnc1SCc1ccccc1	20.4
CCOC(=O)c1cn(CC)c2cc(Cl)c([N+](=O)[O-])cc2c1=O	8.85
COc1ccc(C(=O)Nc2cc(C)nn2-c2cccc(F)c2)cc1	9.2
COc1ccc2c(c1)CCc1c(C(=O)NCCCn3ccnc3)noc1-2	-12.1
Cc1c(/C=N/NC(=O)c2sc3ccccc3c2Cl)cnn1C	10.3
O=C(Nc1cccc([N+](=O)[O-])c1)c1ccc(N2CCCC2=O)cc1	-9.09
CCC1C=C(c2ccccc2)C=CN=C1N(CC)CC (centres unmarked)	-41.8
CCCSc1nc(N2CCOCC2)c2c(c1C#N)CCCC2	8.95
O=C(NCc1ccccc1)c1ccc(CN(c2ccccn2)S(=O)(=O)c2ccccc2)cc1	15
COc1ccc(N2CCN(C(=S)Nc3ccccc3)CC2)cc1	13.5
CCN(CC)C(=O)CSc1nnc(NC(=O)CCc2ccccc2)s1	15.4
COC(OC)c1ccnc(-c2ccc(OC(=O)c3ccc(F)cc3)cc2)n1	9.75
